Experimental data reported in ChEMBL document CHEMBL1157539, “Thousands of chemical starting points for antimalarial lead identification” (Nature, 2010).
Over roughly 13,000 compounds, “IFI” has its median near 4; the highest 2% begin near 17. This is one part of the list.

Assay: GSK_TCMDC: Inhibition Frequency Index (IFI). The number of non-kinase HTS assays where a compound showed > 50 % inhibition, expressed as a percentage of the number of such assays in which the compound was tested (-0 is zero)
Assay type: functional

SMILES | IFI
CCN(CC)CCN(Cc1ccc(-c2ccc(C(F)(F)F)cc2)nc1)C(=O)Cn1c(SCc2ccc(F)cc2)nc(=O)c2sccc21 | 6.62%
CC(C)CNCc1cccc(-c2cccc(CNc3ccc4ncccc4c3)c2)c1 | 7.91%
Cc1ccc(O)c(C(=O)c2cc(C(=O)Nc3ccccc3C)c(=O)n(-c3ccccc3C)c2)c1 | 1.4%
O=c1cc(NCCCNC2CCOc3c(I)cc(Cl)cc32)[nH]c2ccccc12 (stereo unspecified) | 8.61%
COc1cc(Nc2nccc(Nc3ccc4c(C)n[nH]c4c3)n2)cc2ccccc12 | 9.03%
CC(=O)Nc1nc(C(=O)Nc2cccc(-c3ccc(-c4nc5ccccc5[nH]4)cc3)c2)cs1 | 7.02%
OCCOCn1cnc2cnc(N[C@H]3OC[C@H](O)[C@@H](O)[C@@H]3O)nc21 | -0%
CN(C)CCCOc1ccc(CCNCc2cccc(Oc3ccc(Cl)cc3)c2)cc1 | 7.97%
O=C(Nc1ccccc1C(F)(F)F)Nc1nn(Cc2c(F)cccc2Cl)cc1Br | 3.48%
Fc1cccc(COc2ccc(-n3ccc4c(NCCCn5ccnc5)ncnc43)cc2Cl)n1 | 5.76%
COc1ccc(-c2onc(C(F)(F)F)c2-c2ccc(Br)cc2)c(O)c1 | 10%
CN1CCN(CCCCNc2c3ccccc3nc3ccccc23)CC1 | 6.21%
Cn1nccc1C(=O)NCCNCc1ccc(-c2cccc(-c3nc4ccccc4[nH]3)c2)cc1 | 4.85%
COc1cccc(C(=O)Nc2sc3c(c2C(N)=O)CCCC3)c1OC | 0.79%
N#Cc1ccc2c(c1)CCN(CCC1CCC(NC(=O)/C=C/c3ccc4ccccc4c3)CC1)CC2 (stereo unspecified) | 1.4%
Cc1ccccc1N1CCN(c2ccc(C(=O)NC3CC3)cn2)CC1 | 5.88%
COc1ccccc1Nc1nc(C)cc(NCc2ccc(-n3ccnc3)cc2)n1 | 4.69%
COc1cc(C=C(C2=NC(=O)CS2)c2nc3cccnc3n2C)ccc1O | 2.78%
CC(C)N(Cc1cnc2nc(N)nc(N)c2n1)c1ccc(Cl)c(Cl)c1 | 1.49%
O=C(Nc1ccc2c(c1)CCC2)c1cnc(N2CCN(c3ccncc3)CC2)c(Cl)c1 | 14.3%
CCOC(=O)c1ccc(NC(=O)Nc2cccc(-c3ccc(-c4nc5cccc(C)c5[nH]4)s3)c2)cc1 | 2.02%
O=C(NC1CCCC1)c1cc2c(=O)n3ccccc3nc2[nH]/c1=N/CCc1ccccc1 | 2.56%
CCCC(=O)c1cnc2cc(O)ccc2c1Nc1ccccc1C | 2.78%
CCC(C)c1ccc(-n2c(Nc3ccccc3)nc3cc(S(N)(=O)=O)ccc32)cc1 (stereo unspecified) | 1.53%
CCC(C)(C)c1ccc(OCC(O)CN2CCCCC2)c(C(C)(C)CC)c1 (stereo unspecified) | 7.41%
CC1(C)CCNc2cc(NC(=O)c3ccc(-c4ncccc4C(F)(F)F)cc3)ccc21 | 12.7%
